According to PubChem BioAssay AID686970 (National Center for Advancing Translational Sciences (NCATS), 2013):
Among all 360,000 compounds or so, about 6,000 (1.7%) were called active. Inconclusive means that the source gave no clear call. Such entries were picked first, then a sample of the others. Calls come from the whole dose curve; as a rule, active = well fitted cell-killing curve with a large enough effect; inconclusive = small, poorly fitted or top-dose-only effect, or effect the other way; inactive = flat fitted curve, though single readings scatter. Potencies of inconclusive entries are left out as doubtful fits.

Assay: qHTS for induction of synthetic lethality in tumor cells producing 2HG: qHTS for the HT-1080-NT fibrosarcoma cell line;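 note: NT is the 2HG producing partner of a matched IDH1 knockdown line; nearly all actives have a fitted effect of over 55% in size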;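 for activity, negative = less viability: 0% = DMSO-treated cells and -100% = media-only wells without cells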
Details: HT-1080-NT fibrosarcoma viability, CellTiter-Glo ATP luminescence, 48 h; activity, negative = less viability: at 46.1 µM (top of the series) unless noted
Procedure, shortened: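 Toxicity toward the 2HG-producing NT line was scored as %Activity, normalised to DMSO and no-cell wells, from CellTiter-Glo luminescence after 48 hours' treatment.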
Potency is the fitted concentration of half-maximal effect; tags give direction and shape of the fitted curve.

Structure (SMILES)	Potency	activity, negative = less viability
COc1ccc(OC)c(C2=Nn3c(nnc3-c3ccncc3)SC2)c1	inconclusive [cytotoxic, single point]	
CCc1nc2ccc(C(=O)Nc3ccc(NC(C)=O)cc3)cn2c1N(CCC(C)C)CCN(C)C	inconclusive [cytotoxic, partial curve]	
COC(=O)c1[nH]c2ccc(C)cc2c1NC(=O)CN1CCCc2ccccc21	inconclusive [cytotoxic, single point]	
COc1ccc2ccccc2c1-c1sc(Nc2ccccc2)n[n+]1-c1ccc(F)cc1	inconclusive [cytotoxic, single point]	
CCN(CC)CCCC(C)Nc1c2ccc(Cl)cc2nc2ccc(OC)cc12 (centres undefined)	inconclusive [cytotoxic, single point]	
CC(C)C[C@H](NC(=O)c1nc[nH]c1C(=O)N[C@@H](CCCCNC(=O)OC(C)(C)C)C(=O)OC(C)(C)C)C(=O)OC(C)(C)C	inconclusive [cytotoxic, single point]	
c1ccc2c(c1)c1c(c3ccccc32)CN2CCCC2C1 (centres undefined)	inconclusive [cytotoxic, single point]	
COc1ccc(C2=CC(=O)N(Nc3ccccc3)C2=O)cc1	inconclusive [cytotoxic, partial curve]	
Oc1ccc(NCc2cccc(OCc3ccccc3)c2)cc1	inconclusive [cytotoxic, single point]	
Cn1cc([N+](=O)[O-])c(C(=O)Nc2ccc3nc(-c4ccccc4)[nH]c3c2)n1	inconclusive [cytotoxic, single point]	
CCN(CC)S(=O)(=O)c1cccc(S(=O)(=O)c2cccc(S(=O)(=O)N(CC)CC)c2)c1		inactive: -0.485% [at 9.24 µM]
OC(c1ccccc1)(c1nc(-c2ccc(F)c(Cl)c2)cs1)C(F)(F)F (centres undefined)	inconclusive [cytotoxic, partial curve, poor fit]	
Cc1cccc(N/C(N)=N/c2nc(C(F)(F)F)cc(C(F)(F)F)n2)c1	inactive	
CCn1c2ccccc2c2cc(CN3CCN(C(=O)c4ccco4)CC3)ccc21	inconclusive [cytotoxic, single point]	
COc1ccccc1-c1sc2cc3c(cc2c1C#CCO)OCO3	inconclusive [rising, single point]	
COc1ccc(NC(=O)CSc2nnc(C3CCCCC3)n2N)c(OC)c1	inactive	
CCOC(=O)c1c(C)[nH]c(C(=O)N/N=C\c2ccccc2Cl)c1C	inconclusive [cytotoxic, single point]	
Cc1ccc2c(C(=O)CSc3ccccc3)c(C)[nH]c2c1	inconclusive [rising, partial curve]	
CC(=O)Nc1ccc2c(c1)C(=O)N(c1cccc(C)c1)C2=O	inconclusive [rising, partial curve, poor fit]	
CCOCCCNC(=O)/C(C#N)=C/c1cc(OC)c(O)c([N+](=O)[O-])c1	active: 6.51 µM	
Cc1cc(Nc2cccc([N+](=O)[O-])c2)n2c(nc3ccccc32)c1C#N	inconclusive [cytotoxic, partial curve]	
CCOC(=O)C1=C(C)N=C2SC=C(C)N2C1c1ccc(OC)cc1 (centres undefined)	active: 16.4 µM	
CCOC(=O)C1CCCN(C(=O)Nc2ccccc2)C1 (centres undefined)	inactive	

Structure (SMILES)	Potency	activity, negative = less viability
Nc1ccc2nn(-c3ccccc3)nc2c1	inactive	
Cc1nc2ccccc2n1-c1nc(-c2ccco2)cc(C(F)(F)F)n1	active: 5.62 µM	
CCCCN(C)C(=O)c1sc(=O)n(Cc2ccccc2F)c1C	inconclusive [rising, partial curve, poor fit]	
CC(C)(CN1CCN(Cc2ccccc2)CC1)NS(=O)(=O)c1ccc(Cl)cc1	inconclusive [rising, single point]	
Cc1cc(C)c2nc(-c3ccncc3)cc(C(=O)N3CCN(Cc4ccccc4Cl)CC3)c2c1	inconclusive [cytotoxic, single point]	
COC(=O)c1c(C)oc2ccc(N(C(=O)c3ccncc3)S(=O)(=O)c3ccc(C)cc3C)cc12	active: 23.1 µM	
N#C/C(=C\c1ccncc1)c1nc2ccccc2o1	inconclusive [cytotoxic, single point]	
CNc1nc(NCc2ccccc2)c2sccc2n1	inconclusive [cytotoxic, single point]	
CCN(Cc1ccccc1)S(=O)(=O)CCNC(=O)c1ccc(OC)cc1	inactive	
O=C(/C=C/c1c(Cl)cccc1Cl)NCc1ccco1	inconclusive [cytotoxic, single point]	
CN1CCN(C(=S)NC(=O)c2ccc(S(=O)(=O)N3CCOCC3)cc2)CC1	inconclusive [rising, single point]	
O=C(CCCOc1ccc(Cl)cc1Cl)Nc1ccccc1C(=O)O		inconclusive: -19.6% [cytotoxic]
CCOC(=O)c1c(SCCN2CCCC2)n(-c2ccccc2)c(=S)n(-c2ccccc2)c1=O	inconclusive [cytotoxic, single point]	
CC(C)(C)n1nnnc1C(CCc1ccccc1)N1CCN(C/C=C/c2ccccc2)CC1 (centres undefined)	inconclusive [cytotoxic, single point]	
Clc1ccc(N/N=C/c2cccnc2)cc1	inconclusive [cytotoxic, partial curve]	
O=C(NC1CCCCC1)C(c1ccc(-c2ccccc2)cc1)n1c(=O)c(-c2ccco2)nc2ccccc21 (centres undefined)	inconclusive [cytotoxic, single point]	
Cc1ccc(NNc2c(C)nc3ccccc3nc2=O)cc1	inactive	
CC1CCN(CC(O)COCCC23CC4CC(CC(C4)C2)C3)CC1 (centres undefined)	inconclusive [cytotoxic, single point]	
NC(=O)c1cc(S(=O)(=O)NCCc2ccc(Cl)cc2)cs1	inactive	
Cc1ccc(C)c(OCCC(=O)N2CCN(S(=O)(=O)c3ccc([N+](=O)[O-])cc3)CC2)c1	inactive	
O=C1CN(c2nc(-c3cccnc3)nc3sc4c(c23)CCCC4)CCN1	inconclusive [cytotoxic, single point]	
O=C(Nc1ccc(CN2CCOCC2)cc1)c1ccc(Cl)cc1Cl	inconclusive [cytotoxic, single point]	
CC(C)CC(N)c1csc(NC(=O)C(c2ccccc2)c2ccccc2)n1 (centres undefined)	active: 7.31 µM	

Structure (SMILES)	Potency	activity, negative = less viability
CC(=O)Nc1ccc(NC(=O)C(C)OC(=O)c2ccc(S(=O)(=O)N3CCCCCC3)cc2)cc1 (centres undefined)	inconclusive [cytotoxic, partial curve]	
O=C1Nc2cccnc2N(C(=O)CCl)c2ccccc21	inconclusive [cytotoxic, single point]	
CC(C)N1CCc2c(sc(NC(=O)c3ccc(C(=O)c4ccccc4)cc3)c2C(N)=O)C1	active: 20.6 µM	
CCc1ccc(N2CC(C(=O)OCC(=O)N(CC)c3c(N)n(Cc4ccccc4)c(=O)[nH]c3=O)CC2=O)cc1 (centres undefined)	inactive	
COc1cc(NC(=O)NC2Cc3ccccc3C2)cc(OC)c1	inactive	
CS(=O)(=O)c1ccc(CNC(=O)C2(C(F)(F)F)CC(CCCO)CCCO2)cc1 (centres undefined)	active: 1.64 µM	
N#CCc1ccc(NC(=O)/C=C/c2ccc([N+](=O)[O-])o2)cc1	active: 3.26 µM	
CC1(C)CC(=Cc2cc(O)ccc2[N+](=O)[O-])C(=O)c2ccccc21	inconclusive [cytotoxic, single point]	
COc1ccccc1N(Cc1ccccc1)S(=O)(=O)c1cccc(C(=O)Nc2ncccc2C)c1	inactive	
Cc1ccc(-c2cc(C(=O)NCc3cnn(C)c3C)c3cc(Br)ccc3n2)cc1	inconclusive [cytotoxic, single point]	
Brc1ccc(CSc2nnc(-c3cnccn3)n2Cc2ccco2)cc1	inactive	
Cc1ccc2cc(/C=N/NC(=O)[C@@H]3CCCN3)c(Cl)nc2c1	inconclusive [cytotoxic, single point]	
Cc1ccc(NC(=O)c2cc(C(C)(C)C)nn2Cc2ccccc2)cc1	inconclusive [cytotoxic, partial curve, poor fit]	
COc1ccc(N2C(=O)CN(Cc3cc(OC)c(OC)c(OC)c3)C2=S)cc1	inactive	
CC(=O)c1ccc(S(=O)(=O)Nc2cccc(-c3ccc(N4CCOCC4)nn3)c2)cc1	inconclusive [cytotoxic, single point]	
COc1ccc(NS(=O)(=O)c2ccc3oc4ccccc4c3c2)cn1	inconclusive [cytotoxic, partial curve]	
COc1ccc(-c2csc(C(O)c3ccc(OC)cc3)n2)cc1 (centres undefined)	inconclusive [cytotoxic, single point]	
NS(=O)(=O)c1ccc(CCNC(=O)c2ccc(S(=O)(=O)N3CCCCC3)cc2)cc1	inactive	
CCSc1nsc(NC(=O)Nc2ccc(F)cc2F)n1	inconclusive [cytotoxic, single point]	
CCOC(=O)N1CCN(C(=O)c2noc(C(C)C)c2[N+](=O)[O-])CC1	inactive	
N#CC1=C(N)Oc2cc(O)ccc2C1c1ccccc1 (centres undefined)	inconclusive [cytotoxic, single point]	
NC(=S)N/N=C/c1ccc(C23CC4CC(CC(C4)C2)C3)cc1	inconclusive [cytotoxic, partial curve]	
CCCCCCCCCCCCCCCC[N+](C)(C)CCN(Cc1ccc(OC)cc1)c1ncccn1	active: 16.4 µM	
